Source: the supplement of paper PMC4604168 (melanoma cell lines)
Some of the results follow. Single values are uncertain, as repeats are few or missing.

Tests used:
Assay in all cases: cell count relative to DMSO control; melanoma cells; higher = more viable cells
Conditions in all cases: library dose: low library concentration; 72 h
[1] = tested on: MZ2-MEL
[2] = tested on: MeWo
[3] = tested on: RPMI7951
[4] = tested on: RVH-421
[5] = tested on: SkMel28
[6] = tested on: SkMel2
[7] = tested on: SkMel30
[8] = tested on: UACC62
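Note: cell number obtained by counting DAPI-stained nuclei in high-throughput microscope images with image analysis software, screen run in 1,536-well plates.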

COc1ccc(C2=N[C@@H](c3ccc(Cl)cc3)[C@@H](c3ccc(Cl)cc3)N2C(=O)N2CCNC(=O)C2)c(OC(C)C)c1 [Nutlin-3] + CC(=O)O[C@@]12CO[C@@H]1C[C@H](O)[C@@]1(C)C(=O)[C@H](O)C3=C(C)[C@@H](OC(=O)[C@H](O)[C@@H](NC(=O)OC(C)(C)C)c4ccccc4)C[C@@](O)([C@@H](OC(=O)c4ccccc4)[C@H]21)C3(C)C [Docetaxel] (first compound 0.1 µM, partner dose 0.0001 µM)
cell count [1]: 42.8% | cell count [2]: 56.7% | cell count [3]: 43.8% | cell count [4]: 56.8% | cell count [5]: 48.2% | cell count [6]: 38.3% | cell count [7]: 47.5% | cell count [8]: 52.7%

CC(C)C[C@H](NC(=O)[C@H](Cc1ccccc1)NC(=O)c1cnccn1)B(O)O [Bortezomib] + Nc1nc(F)nc2c1ncn2[C@@H]1O[C@H](CO)[C@@H](O)[C@@H]1O [fludarabine] (first compound 0.001 µM, partner dose 0.2 µM)
cell count [1]: 68.9% | cell count [2]: 35.5% | cell count [3]: 63.1% | cell count [4]: 61% | cell count [5]: 74.3% | cell count [6]: 6.01% | cell count [7]: 21.9% | cell count [8]: 64.3%

Cc1cc(Nc2cc(N3CCN(C)CC3)nc(/C=C/c3ccccc3)n2)n[nH]1 + O=C(O)c1ccc2c(c1)nc(Nc1cccc(Cl)c1)c1ccncc12 [CX4945] (first compound 0.04 µM, partner dose 0.4 µM)
cell count [1]: 93.5% | cell count [2]: 88.1% | cell count [3]: 83.5% | cell count [4]: 88.4% | cell count [5]: 99.4% | cell count [6]: 0.273% | cell count [7]: 92.4% | cell count [8]: 77.4%

Cc1cn(-c2cc(NC(=O)c3ccc(C)c(Nc4nccc(-c5cccnc5)n4)c3)cc(C(F)(F)F)c2)cn1 [nilotinib] + O=C(O)c1ccc2c(c1)nc(Nc1cccc(Cl)c1)c1ccncc12 [CX4945] (first compound 0.2 µM, partner dose 0.4 µM)
cell count [1]: 85.3% | cell count [2]: 103% | cell count [3]: 84.5% | cell count [4]: 77.5% | cell count [5]: 93.8% | cell count [6]: 85.4% | cell count [7]: 98% | cell count [8]: 118%

Cc1cc(Nc2cc(N3CCN(C)CC3)nc(/C=C/c3ccccc3)n2)n[nH]1 + Cn1c(=O)n(-c2ccc(C(C)(C)C#N)cc2)c2c3cc(-c4cnc5ccccc5c4)ccc3ncc21 [NVP-BEZ235] (first compound 0.04 µM, partner dose 0.004 µM)
cell count [1]: 102% | cell count [2]: 81.2% | cell count [3]: 88.5% | cell count [4]: 78.8% | cell count [5]: 75.6% | cell count [6]: 89.2% | cell count [7]: 121% | cell count [8]: 92.4%

CC(C)C[C@H](NC(=O)[C@H](Cc1ccccc1)NC(=O)c1cnccn1)B(O)O [Bortezomib] + C#Cc1cccc(Nc2ncnc3cc(OCCOC)c(OCCOC)cc23)c1 [erlotinib] (first compound 0.001 µM, partner dose 0.8 µM)
cell count [1]: 72.4% | cell count [2]: 84.7% | cell count [3]: 85.5% | cell count [4]: 60.9% | cell count [5]: 98.6% | cell count [6]: 90.5% | cell count [7]: 82.2% | cell count [8]: 57.3%

Cc1cc(Nc2cc(N3CCN(C)CC3)nc(/C=C/c3ccccc3)n2)n[nH]1 + C[C@]1(c2nc3c(C(N)=O)cccc3[nH]2)CCCN1 [Veliparib] (first compound 0.04 µM, partner dose 1.4 µM)
cell count [1]: 98.1% | cell count [2]: 93% | cell count [3]: 98.7% | cell count [4]: 80.3% | cell count [5]: 81.6% | cell count [6]: 113% | cell count [7]: 107% | cell count [8]: 79.3%

Cn1c(=O)n(-c2ccc(C(C)(C)C#N)cc2)c2c3cc(-c4cnc5ccccc5c4)ccc3ncc21 + Nc1nc(F)nc2c1ncn2[C@@H]1O[C@H](CO)[C@@H](O)[C@@H]1O [fludarabine] (first compound 0.004 µM, partner dose 0.2 µM)
cell count [1]: 97.8% | cell count [2]: 36.3% | cell count [3]: 82.6% | cell count [4]: 93.8% | cell count [5]: 81.2% | cell count [6]: 8.59% | cell count [7]: 24.7% | cell count [8]: 100%

Cc1cc(Nc2cc(N3CCN(C)CC3)nc(/C=C/c3ccccc3)n2)n[nH]1 + Clc1ccc(Nc2nnc(Cc3ccncc3)c3ccccc23)cc1 [vatalanib] (first compound 0.04 µM, partner dose 2 µM)
cell count [1]: 99.2% | cell count [2]: 78.7% | cell count [3]: 77.5% | cell count [4]: 94.5% | cell count [5]: 93.2% | cell count [6]: 104% | cell count [7]: 101% | cell count [8]: 92.4%

Cc1cn(-c2cc(NC(=O)c3ccc(C)c(Nc4nccc(-c5cccnc5)n4)c3)cc(C(F)(F)F)c2)cn1 [nilotinib] + CN(c1ncccc1CNc1nc(Nc2ccc3c(c2)CC(=O)N3)ncc1C(F)(F)F)S(C)(=O)=O [PF562271] (first compound 0.2 µM, partner dose 0.08 µM)
cell count [1]: 82.6% | cell count [2]: 101% | cell count [3]: 85.1% | cell count [4]: 96% | cell count [5]: 94.8% | cell count [6]: 70.7% | cell count [7]: 92.1% | cell count [8]: 74.1%

Cn1c(=O)n(-c2ccc(C(C)(C)C#N)cc2)c2c3cc(-c4cnc5ccccc5c4)ccc3ncc21 + C=CCNC1=C2C[C@@H](C)C[C@H](OC)[C@H](O)[C@@H](C)/C=C(\C)[C@H](OC(N)=O)[C@@H](OC)/C=C\C=C(/C)C(=O)NC(=CC1=O)C2=O [Tanespimycin] (first compound 0.004 µM, partner dose 0.002 µM)
cell count [1]: 98.3% | cell count [2]: 76.8% | cell count [3]: 90.6% | cell count [4]: 97.5% | cell count [5]: 81.4% | cell count [6]: 99% | cell count [7]: 85.3% | cell count [8]: 85.2%

CC(C)C[C@H](NC(=O)[C@H](Cc1ccccc1)NC(=O)c1cnccn1)B(O)O [Bortezomib] + Nc1cccc2c1CN(C1CCC(=O)NC1=O)C2=O [lenalidomide] (first compound 0.001 µM, partner dose 1 µM)
cell count [1]: 77.5% | cell count [2]: 91.9% | cell count [3]: 83.5% | cell count [4]: 55.7% | cell count [5]: 98.6% | cell count [6]: 91.6% | cell count [7]: 94.2% | cell count [8]: 79.7%
